Experimental data published in the supplement of paper PMC10126150.
Sequences with one replicate were seen in a single cluster, so their values are uncertain.

Tested on: ATP
Assay: switch fluorescence ratio, 500 uM ATP over buffer (Cy3 cluster intensity, sum of 5 cycles each) (fold (ratio)); higher = stronger signal-on switching upon ATP binding; sequences stand for … in TCGTCGGCAGCGTCAGATGTGTATAAGAGACAGTTTTTTTTTTTTTTTTTTTTTTTTT…TC
Conditions: aptamer strand: ATP DNA aptamer (quencher-CACCTGGGGGAGTATTGCGGAGGAAGG + anchor), 100 nM annealed; ATP concentration: 500 uM; one replicate
In short: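 After annealing to 100 nM quencher-labelled ATP aptamer, Cy3-labelled switching-strand clusters on a modified Illumina MiSeq flow-cell were imaged in selection buffer. A second image followed after 15 min with 500 uM ATP at 22 °C, and five such buffer/ATP cycles were done, each separated by NaOH stripping and re-annealing. The fluorescence ratio, averaged per switch-domain sequence, is summed target-cycle over summed buffer-cycle Cy3 intensity per cluster, with clusters outside 100-1000 RFU excluded.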
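Note: ATP exposure 15 min at 22 °C before imaging.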

Row | Sequence | switch fluorescence ratio
1 | CTTGACCGC | 1.08
2 | GAACTGGACA | 1.11
3 | TAACAGTAGT | 1.09
4 | AACATCCTGT | 0.982
5 | CGAAGCCAAG | 1.22
6 | AAACCAAGAA | 0.974
7 | GAATCTGTCT | 1.04
8 | TTATATTAAC | 1.04
9 | TGGCGTTCGG | 0.967
10 | CTGCCGGGAT | 1.09
11 | TGGAAGGTGA | 1.02
12 | CGAAGAGATG | 1.02
13 | GCTGATATAG | 0.993
14 | AACTAGATGG | 0.973
15 | ACCGGCACA | 1.13
16 | TCGGCCAGAA | 0.979
17 | AGCAATCACG | 3.09
18 | CGTCTTAGTA | 1.03
19 | ACAAAAACCC | 1.02
20 | AGCAACGTGC | 1.01
21 | CCGGGCTTTG | 1.01
22 | AATCTGAGGG | 0.998
23 | GGGCGAAAGC | 1.03

Row | Sequence | switch fluorescence ratio
24 | CTGGTAAAGG | 0.989
25 | CTCATAGTGA | 1.01
26 | GAGTTTTCCT | 1.07
27 | GAAATCATAA | 1.04
28 | ACTAAGGACT | 1.05
29 | ATCATTTGAC | 1.03
30 | TCGGGTATAG | 1.01
31 | CAGAAACGTG | 0.962
32 | TCATGAAAGG | 0.997
33 | ACGCTTGTGG | 1
34 | CTAAGACAGC | 0.996
35 | TGAAGCCCCG | 0.998
36 | CTAACTCCTT | 1.02
37 | GTAGAGTGAC | 1.02
38 | AACGGCATCC | 1.1
39 | AGTTGCCAAA | 0.984
40 | GGTACTAGTT | 0.999
41 | GGGCAGGCTC | 1.02
42 | AAATATCAAA | 0.998
43 | GCGCCAATGT | 1.19
44 | CAGCGATAGT | 1.44
45 | TCATCGCCCC | 2.26
46 | TTAACGGTT | 0.946

Row | Sequence | switch fluorescence ratio
47 | AATAATACTC | 1.39
48 | CATGATATGC | 1.04
49 | TGGCACAAAT | 0.994
50 | TTCACGAGA | 1.06
51 | CTAAGTCGGC | 1.05
52 | CACCATTGAC | 1.07
53 | CCAATAAGCT | 1.04
54 | GGACCGTAGT | 0.985
55 | TTATCGCACT | 1.12
56 | GCGTTAGATC | 1.06
57 | TGAGACAAGG | 0.978
58 | ATGCGCCGTT | 1.03
59 | TTTGTACTTA | 1.03
60 | CCTGGATAGG | 0.958
61 | AGGCATCTGT | 0.984
62 | ATGGCGGCTG | 0.978
63 | TTTGGTTCGT | 0.997
64 | CGTCAGGAGT | 0.991
65 | GCGGGTAGGT | 0.968
66 | TTGACGTACT | 1.36
67 | GTGAAAAAT | 0.96
68 | CTCCCGGAGG | 1.09
69 | CAGAAGATTG | 1.03

Row | Sequence | switch fluorescence ratio
70 | GGTTACAAAT | 0.939
71 | GCCGATTAGC | 1.04
72 | TTAACAGTCA | 1
73 | GTTGGGGACC | 1.01
74 | AGGGCTTACC | 1.06
75 | GTGCGTAGTT | 1.01
76 | GGTGTGTCAG | 1.01
77 | ACTAATTACC | 1.07
78 | AGGGAAGAGC | 1.05
79 | CAAGTCAGTT | 0.973
80 | GGAGGGT | 0.954
81 | CGAGAATTAG | 1
82 | CCGCTGAGTG | 1.49
83 | TCCAATTTGC | 1.08
84 | CGAGCCAAAC | 2.33
85 | ATCAGGACG | 1.01
86 | AGCGAATAAT | 1.05
87 | TTTCCGAGTT | 1.09
88 | AGGTGCGCGT | 1.02
89 | ATAGGGAAAT | 1.01
90 | GTTAGAATCC | 1.02
91 | TTAGCGGAAC | 1.21
92 | AAAATCTTGC | 1.23

Row | Sequence | switch fluorescence ratio
93 | ACTGACGGGG | 1.14
94 | GTTTGCGAGG | 1.06
95 | ACCAGCACTC | 1.59
96 | GCGTATCGAA | 1.02
97 | TGTGCCGGCG | 0.962
98 | GCTTGCTGTT | 1.01
99 | CATGTACTCG | 1.04
100 | GTAGCGTTGC | 1.15
101 | GGCAATTGAT | 0.99
102 | AATGGGATGC | 1.04
103 | CGACCGTTAT | 1.23
104 | TTGGTACCTT | 2.18
105 | GTAGATAATC | 1
106 | ACCCTGAAGT | 1.01
107 | TTATACTTCT | 1
108 | TTCCACAGCT | 1.8
109 | AGTGTGTGTC | 0.977
110 | GGAATAGACC | 0.984
111 | GCAGGATTTG | 0.986
112 | CACGATGACA | 1.05
113 | TCTCGATTT | 1.05
114 | GGGTTATGTC | 1.07
115 | GTCGTTTCGG | 1.04

Row | Sequence | switch fluorescence ratio
116 | CGCTGCAAAA | 2.15
117 | AGTCCCCTTC | 1.09
118 | CCAGGTCTTT | 1.09
119 | GTGGTCGTAT | 0.997
120 | ATTTAACTAT | 1
121 | TGAGGTCTGG | 0.981
122 | AAGGCCAATG | 0.993
123 | GCTGGCATGG | 1
124 | AAATTGCGC | 1.05
125 | CGGTAGAACT | 0.992
126 | TTCTATACAC | 1.04
127 | AGTGAGAGAT | 1.03
128 | GTAGGCTGAC | 0.966
129 | AGAAAGCTTG | 0.961
130 | CCTTTTAGGA | 1.03
131 | TTTAGGAACA | 1
132 | AATCTGCCAG | 0.994
133 | TTTCCGTTCT | 1.05
134 | ATGCGTTTC | 1.07
135 | CAGGATAGGG | 0.98
136 | GCAAATTTGG | 1
137 | TTATTAACGT | 1.01
138 | CATAGGAATA | 1.12

Row | Sequence | switch fluorescence ratio
139 | ACTTATCGCT | 1.01
140 | TAACTTGGAA | 1
141 | AGTTAGTGTA | 0.997
142 | GGAGACTGCA | 1.06
143 | TTTGCATATT | 0.99
144 | AGTAACAGG | 1.06
145 | ACGATCATAA | 1.04
146 | TGCTTCTCAA | 1.09
147 | TTTATCAACC | 1.03
148 | TTTGCGCAAA | 2.82
149 | TTAGGTGGGA | 0.945
150 | GCTGTGGTTG | 0.997
151 | TAATATAGCG | 0.983
152 | GTATTTTCAG | 0.945
153 | TTGTCGATTG | 1.01
154 | GCTTACCGAG | 1.01
155 | CAGTCTACTG | 1.02
156 | AGAGGGGAGC | 1.01
157 | AGGTTGGCAC | 1.03
